The text below walks through data of patent US9751932B2, “Anti-big-endothelin-1 (big-ET-1) antibodies and uses thereof” (Regeneron Pharmaceuticals, Inc., priority 2012, dated 2017).

The target in test [1] is T1, mouse big-ET-1 (SEQ ID NO:437) (Mus musculus, UniProt P22387).
T1 sequence (P22387 53-91 limits assumed): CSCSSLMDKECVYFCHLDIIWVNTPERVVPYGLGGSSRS
In words: Surface plasmon resonance (Biacore) binding, mAb capture format, 37° C. The settings on record: for ka / kd / Kd: analyte mouse big-ET-1, mAb capture; for Kd: KD=kd/ka. On the procedure:
(§1) Measurements were conducted on a T200 Biacore instrument (Biacore Life Sciences division of GE Healthcare, Piscataway, N.J.). […] Different concentrations of small-ET-1 (SEQ ID NO:435), human big-ET-1 (SEQ ID NO:434) or mouse big-ET-1 (SEQ ID NO:437) were injected over the anti-big-ET-1 captured surfaces at a flow rate of 100 μl/min. Peptide binding was monitored for 3 min while dissociation of mAb-bound peptide was monitored for 4 min in HBST running buffer (0.01 M HEPES pH 7.4, 0.15 M NaCl, 3 mM EDTA, 0.005% v/v Surfactant P20). Kinetic association (ka) and dissociation (kd) rate constants were determined by processing and fitting the data to a 1:1 binding model using Scrubber 2.0 curve fitting software.
(SPR reads the build-up and loss of mass on a sensor chip optically.)

Test [2] addresses T2, human big-ET-1 (SEQ ID NO:434) (Homo sapiens, UniProt P05305).
T2 sequence (P05305 53-90 limits assumed): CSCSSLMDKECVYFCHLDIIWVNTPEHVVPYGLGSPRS
The description is as above. On the procedure:
as §1

For test [3], the target named is T1, mouse big-ET-1 (SEQ ID NO:437). The test can be described thus: MALDI-TOF detection of C-term peptide product from cleavage of big-ET-1 by mouse ECE-1. In kind it is biochemical. Further details: purchased R&D Systems (mouse ECE-1 only). An excerpt: (§2) Matrix Assisted Laser Desorption Ionization Time of Flight (MALDI-TOF) mass spectrometry was used to determine if selected anti-big-ET-1 antibodies could block the conversion of human big-ET-1 (SEQ ID NO:434) or mouse big-ET-1 (SEQ ID NO:437) into its respective peptides in the presence of mouse endothelin converting enzyme 1 (ECE-1). Human big-ET-1 is specifically cleaved by mECE-1 at Trp-21/Val-22 forming both biologically active small-ET-1 (SEQ ID NO:435; MH^+ 2474) and a non-active C-term product (amino acids 22-38 of SEQ ID NO:434; MH^+ 1809). Mouse big-ET-1 is cleaved at Trp-21/VaI-22 into small-ET-1 (SEQ ID NO:435; MH^+ 2474) and its non-active C-term product (amino acids 22-39 of SEQ ID NO:437; MH^+ 1875). The appearance or absence of these masses, in the presence of antibody, can be monitored by MALDI-TOF. In the example below, the presence or absence of the C-term products served as an indicator for big-ET-1 cleavage since these peptides ionize more efficiently than small-ET-1 (SEQ ID NO:435; MH^+ 2474), thereby yielding a more sensitive readout.
(§3) Briefly, human or mouse big-ET-1 (0.5 μM) was mixed with antibody (2.5 μM), in phosphate buffered saline (PBS), at a 1:5 molar ratio (big-ET-1:mAb). After a 1-hr incubation (25° C.), mouse ECE-1 (R&D Systems) was added at 40 nM and the solution was placed at 37° C. Aliquots for mass spectrometry analysis were taken at 0, 15, 30 and 60 minutes. Each aliquot was desalted via C18 Ziptip (Millipore) and analyzed in reflextron-positive mode using a Bruker Ultraflextreme MALDI-TOF instrument (Bruker Daltonics).

Test [4] has as its target T2, human big-ET-1 (SEQ ID NO:434). The test is described as above. In kind it is biochemical. Further details: purchased R&D Systems (mouse ECE-1 only).
Description: as §2, §3

For test [5], the target named is T3, human big-ET-1 (cleavage by human ECE-1) (Homo sapiens, UniProt P05305).
T3 sequence (P05305 53-90 limits assumed): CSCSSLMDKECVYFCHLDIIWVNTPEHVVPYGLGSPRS
In words: NFAT luciferase reporter assay (293/ETaR/NFAT-Luc cells) for blocking of ECE-1-mediated cleavage. In kind it is cell-based. On the procedure:
(§4) Briefly, HEK293 cell lines were generated to stably express full-length human endothelin receptor type A (ETaR) along with a luciferase reporter element [NFAT (4×)-luciferase]. A single clone was isolated and maintained in 10% FBS, DMEM, NEAA, Pen/Strep, and 500 μg/ml G418 and 100 μg/ml hygromycin B.
(§5) Both human and mouse big-ET-1 blocking experiments were allowed to incubate (37° C.; 5% CO2) overnight. The next morning these solutions were added to the 293/ETaR/NFAT-Luc cells (20,000 cells/well) and luciferase activity was detected after 5.5 hrs (37° C.; 5% CO2) using a Victor X plate reader (Perkin Elmer). The amount of luciferase activity observed under these conditions is a proportional representation of the amount of small-ET-1 generated from cleavage of either mouse or human big-ET-1.
(In a reporter assay the amount or activity of a reporter protein is the signal.)

For test [6], the target named is T4, mouse big-ET-1 (cleavage by mouse ECE-1) (Mus musculus, UniProt P22387).
T4 sequence (P22387 53-91): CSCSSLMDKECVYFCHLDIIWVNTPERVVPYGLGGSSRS
The test is described as above. In kind it is cell-based. The settings on record: read-out: Blocking IC50 20 nM mBig-ET-1 + 5 nM mECE1; human Fc mAbs (Table 5). As to the method: as §4, §5

Where [7] appears, read: analyte human big-ET-1, mAb capture.

Read-outs that look alike come from different tables or passages of the source.

B1: H4H6334P: anti-big-ET-1 antibody, human IgG4 Fc; HCVR/LCVR SEQ ID NO: 242/250 (antibody, V domains shown)
VH: EVQLVESGGGLVKPGGSLRLSCAVSGFTFSIDWMIWVRQAPGTGLEWVGRIKRKTDGGTTDYAAPVKGRFTISRDDSKNTLYLQMNSLKTEDTAIYYCATGGFERVGQGTLVTVSS
VL: [omitted - about 100 residues]LTFGGGTKVEIK
modifications: human IgG4 Fc
Take B1: the ka in test [1] turned out to be 7900 M/s; in test [2] (setting [7]), 2.02e+06 M/s. Further, the kd came out at 0.000456 s⁻¹ in test [1] and 8.68e-05 s⁻¹ in test [2] (setting [7]). In addition, the “Detection of C-term Peptide Product, 0 min” value in test [3] (0 min) and in test [4] (0 min) was “−” throughout. Further, the entries for the “Detection of C-term Peptide Product, 15 min” value in test [3] (15 min) and in test [4] (15 min) were “+ (C-term product was identified at all time points (denoted by “+” in Table 6))” and “−”, respectively. The “Detection of C-term Peptide Product, 30 min” value in test [3] (30 min) is listed as “+ (C-term product was identified at all time points (denoted by “+” in Table 6))”; in test [4] (30 min) it was “−”. The results for the “Detection of C-term Peptide Product, 60 min” value in test [3] (60 min) and in test [4] (60 min) were “+ (C-term product was identified at all time points (denoted by “+” in Table 6))” and “−”, respectively.

B2: H4H6311P: anti-big-ET-1 antibody, human IgG4 Fc; HCVR/LCVR SEQ ID NO: 98/106 (antibody, V domains shown)
VH: QVQLVESGGGVVQPGRSLRLSCAASGFTFSTYGMHWVRQAPGKGLEWVAVFWFDGSNKYYADSVKGRFTISRDNSKNTIYLQMNSLRAEDTAIYYCARAYDAFDIWGQGTMVTVSS
VL: [omitted - about 100 residues]
modifications: human IgG4 Fc
A word on the Kd: it is a measure of binding affinity in units of concentration. In general, IC50 refers to the concentration that inhibits the measured activity by half. Take B2: in test [1], the “binding to mouse big-ET-1 (in words)” value is “did not show any binding” and the Kd is more than 1000 nM. Moreover, the “binding to human big-ET-1 (in words)” value in test [2] was “high affinity binding”. In test [2] (setting [7]), the ka turned out to be 19200 M/s and the kd was determined as 0.000292 s⁻¹. Further, the IC50 in test [5] (read-out: Blocking IC50 10 nM hBig-ET-1 + 3 nM hECE1, human Fc mAbs (Table 5)) was more than 100 nM.

B3: H2M6741N: anti-big-ET-1 antibody, mouse IgG2 Fc; HCVR/LCVR SEQ ID NO: 82/90 (antibody, V domains shown)
VH: QVQLVESGGGVVQPGRSLRLSCAASGFTFRSYGMHWVRQAPGKGLEWVAVIWYDGSDKYYADSVKGRFTISRDNSKNTLYLQMNSLRAEDTAVYFCAKDEYKTRGGYFDYWGQGTLVTVSS
VL: [omitted - about 120 residues]
modifications: mouse IgG2 Fc
In test [1], B3 gave a ka of 385000 M/s, a kd of 0.0891 s⁻¹ and a Kd of 232 nM. In addition, in test [2] (setting [7]), the ka was found to be 582000 M/s and the kd is 0.137 s⁻¹. Further, the Kd in test [2] (analyte human big-ET-1, mAb capture, KD=kd/ka) was determined as 236 nM. Moreover, the IC50 in test [5] (read-out: Blocking IC50 10 nM hBig-ET-1 + 3 nM hECE1 [Trial 2], Trial 2, hybridoma mAbs) turned out to be 15 nM.

B4: H4H6495N: human IgG4 Fc format carrying identifier 6495N (variable domains HCVR/LCVR SEQ ID NO: 66/74 per nomenclature in b139) (antibody, V domains shown)
VH: QVQLVESGGGVVQPGRSLRLSCAASGFTFRSYGMHWVRQAPGKGLEWVAVIWYDGSDKYYADSVKGRFTISRDNSKNTLYLQMNSLRAEDTAVYFCAKDEYKTRGGYFDYWGQGTLVTVSS
VL: [omitted - about 120 residues]
modifications: human IgG4 Fc
In test [2] (setting [7]), B4 showed a ka of 606000 M/s and a kd of 0.0399 s⁻¹. Further, the half-maximal inhibitory concentration (IC50) in test [6] is more than 100 nM.
